# Experimental data published in PMC12136788.
# Numbering of substitutions follows the chain as printed. The list shows a part of the results.
# T1: UNK ZnF1-3 (human, UniProt Q9C0B0 31-174)
# T1 sequence: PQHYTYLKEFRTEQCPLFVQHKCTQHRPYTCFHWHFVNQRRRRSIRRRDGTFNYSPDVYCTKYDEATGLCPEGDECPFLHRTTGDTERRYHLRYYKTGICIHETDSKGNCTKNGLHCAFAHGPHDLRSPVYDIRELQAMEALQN
# B1: chr7:7679991:7679992:-_ENSG00000106399_ENST00000396682|hu_hu|hu_hu_hu_mus_False|1_58 (ssRNA)
# RNA: GGGAGUUCUACAGUCCGACGAUCUGGGAUGAAUCUUUUCCAGCUUCCCCACGAAGCACACGGGCCGGUCGAUAUACUGAGCUAGCAUGCUGGCGUUGACGCGCGCUUUGGGGAGCUGCAUUAUGUCCUCCAUGAUUAUGGUCCCAACAGAGGAUUGAGCAUCA
# B2: chrX:103214973:103214974:+_ENSMUSG00000031231_ENSMUST00000033582|mus_mus|motif|central (ssRNA)
# RNA: GGGAGUUCUACAGUCCGACGAUCAGAAACACAGAAGAUGGCUCCACCUGCUAAUAUAGCAUUCCCAUAUUUGUCAUGGAAACGGGGUGCCCUCUUCUGGUGGCUCUGCCUUGCCACCACUUGCUGAAUGCUUCGAACUUGGAGCAACAGAGGAUUGAGCAUCA
# B3: chr8:101932682:101932683:-_ENSG00000164924_ENST00000353245|hu_hu|FALSE|FALSE (ssRNA)
# RNA: GGGAGUUCUACAGUCCGACGAUCAGACAUGGAAGCAGUUUUACACUGGCCCUUUUGAAGCCACAAUGUACCAAAAGUACUAUGCCAAACACUUAUAACUUGUAUAAAAAUUCCACAUCCCCAUAUUGGCCACCUCAAGAUGAACAACAGAGGAUUGAGCAUCA
# B4: chr17:55758012:55758013:+_ENSG00000153944_ENST00000284073|hu_mus|motif|central (ssRNA)
# RNA: GGGAGUUCUACAGUCCGACGAUCUCCUUUUAAAAAACGUCUUGGGAAAAGCAGUUUUUCAUAUUUUAAAUAAAAAUCGGGCGGGAUCAUAACAUUAGAAGCUGUGCACAGAGAGGCUGGUAGGCUGGCAGGGUGCUAAUGUGGCAACAGAGGAUUGAGCAUCA
# B5: 184043062_184043288_2805_CDS_ENSG00000114867_ENST00000411531|human|control|control (ssRNA)
# RNA: GGGAGUUCUACAGUCCGACGAUCUCGGCGUGGCACCCAAUUGCUCCCUCGCAGAUCCAGCACGUCCUGCAGCAUAAAGCGGAUGCGGGAUGACGUCUUCUUUUCUUUAAUGAUUUUUUCCAUCUGGUUGAAAUACUGAUCCAUCAACAGAGGAUUGAGCAUCA
# B6: 91039910_91048664_436_3pUTR_ENSMUSG00000030091_ENSMUST00000032179|mouse|control|control (ssRNA)
# RNA: GGGAGUUCUACAGUCCGACGAUCUGCUGAAGGUAUUCCCUUCUGAGUCCAGAGCCUGGAUCUUCAGCUCCAGUGGAGAGUCCUCAAGAUAGAGCUCACGGGUGGUAGAGACAAUCUGAAUGCCGUGGAUGAGAUCAACGAUGGCAACAGAGGAUUGAGCAUCA
# B7: chr4:52453130:52453131:+_ENSMUSG00000028312_ENSMUST00000117280|mus_mus|motif|central (ssRNA)
# RNA: GGGAGUUCUACAGUCCGACGAUCUCCUCUGUGCAUAGGACUUGAAUCCUUCGAGAAUGAUUGAUUUAACAUACAUUUUCGGAACUGUCUUGGGUUAGUAAGCCUGUUAGGCAACAAGCUACAAGUCACGUCUGUACUCAGGCGCAACAGAGGAUUGAGCAUCA
# B8: 55316543_55316663_4966_3pUTR_ENSMUSG00000018583_ENSMUST00000018727|mouse|control|control (ssRNA)
# RNA: GGGAGUUCUACAGUCCGACGAUCGGCUCCUUGGCUCAAUACCGUAGGUAUUGCCCGAGGCCCUGCCUGCUCCUGGAAGCCCUGAUUGCUCAACUGCUUCUCACCAUCUCUUCCCCUUAUUACUGGGUCAUAAUUCAAGGCAGACAACAGAGGAUUGAGCAUCA
# B9: chr1:60041781:60041782:+_ENSMUSG00000041040_ENSMUST00000036540|mus_hu|mus_mus_mus_hu_False|1_18 (ssRNA)
# RNA: GGGAGUUCUACAGUCCGACGAUCAAGUUUACAAUAGUAAAGUAAAUGCAGUAGUGGCAAAUUUUCUUUUAUUUUCCUUCACAAAAGAAAAUCUUUAUAACCCAGUCCUAGUCUUGGCAGAGAAAGCAGCUAUAAAUGCCACUGCAACAGAGGAUUGAGCAUCA
# B10: chr1:109605286:109605287:-_ENSG00000197780_ENST00000461096|hu_mus|hu_hu_hu_mus_True|68_88 (ssRNA)
# RNA: GGGAGUUCUACAGUCCGACGAUCAAGUUUCAGAGUAACAUUCAGUAUACUUAAAUCAUGCAAUUAUCCUUACUUUAAGCUAAGCAGAAUAAUAAUUUAAUACCGUAAGUGAACUACACACAAAGCCUGAACCGCGAAAAUGGUCAACAGAGGAUUGAGCAUCA
# B11: chr1:109605286:109605287:-_ENSG00000197780_ENST00000461096|hu_mus|FALSE|FALSE (ssRNA)
# RNA: B10 RNA with U47A, A48C, U51C, A52U, A53U, A54U, U55A, C56A, C72U, U74A
# B12: chr14:90870231:90870232:+_ENSG00000198668_ENST00000553542|hu_hu|FALSE|FALSE (ssRNA)
# RNA: GGGAGUUCUACAGUCCGACGAUCACGGAUUUCUUCUUCACUAUCUGUAUCUUUCAUUUUUCUAGCCAUCAUAGUCAAAAAUUCGGGGAAGUCAAUGGUGCCAUUACCAUCAGCAUCCACUUCAUUGAUCAUAUCCUGCAAUUCCAACAGAGGAUUGAGCAUCA
# B13: chr10:98726024:98726025:+_ENSMUSG00000019960_ENSMUST00000020118|mus_mus|FALSE|FALSE (ssRNA)
# RNA: GGGAGUUCUACAGUCCGACGAUCACCCAGUGAAUGAAAUCCAAUUAAUUCGGACUCCGUGCCACUGAGAGGAGAAAAAGGGAAAAGAAAAAAAGUCUAGCGGCUCUUAAUCCUUCCCUCUGAGGCUGCACCUCGGAUCCAACCCAACAGAGGAUUGAGCAUCA
# B14: chr7:44244176:44244177:+_ENSG00000106636_ENST00000223369|hu_mus|hu_hu_hu_mus_False|38_78 (ssRNA)
# RNA: GGGAGUUCUACAGUCCGACGAUCACUGUCGCUCCGGACGUAGACAUGGCAAAGAUAGUCUUGUUCUUUGACAGAAGCUCUGCUGCCUUUCCCCGAGCGCUCCACAAUCAGUUGACUUGUAAAGGUCAUGAAUUCCUGCACACUCAACAGAGGAUUGAGCAUCA
# B15: chr1:109605286:109605287:-_ENSG00000197780_ENST00000461096|hu_mus|hu_hu_hu_mus_True|28_38 (ssRNA)
# RNA: GGGAGUUCUACAGUCCGACGAUCAAGUUUCAGAGUAACAUUCAGUAACCUCUUUAAAUGCAAUUAUCCUUAUUAUAAGCUAAGCAGAAUAAUAAUUUAAUACAUAGAGUAAAUACAACACAAAGCCUGAACCGCGAAAAUGGUCAACAGAGGAUUGAGCAUCA
# B16: chrX:70927055:70927056:+_ENSMUSG00000019558_ENSMUST00000114465|mus_hu|FALSE|FALSE (ssRNA)
# RNA: GGGAGUUCUACAGUCCGACGAUCCCUUUGCCCAGAGGCGCCAUUUACAUCUGGCAUUCACCUUUGCUAAGAGAUAGAGAUCUAUAUAUACUCUCCGUACUCACGCACGCGUGCACUCGCACCCAAGCUCACACAAUUGAUACUCAACAGAGGAUUGAGCAUCA
# B17: chr5:138699528:138699529:+_ENSG00000120727_ENST00000265192|hu_mus|motif|central (ssRNA)
# RNA: GGGAGUUCUACAGUCCGACGAUCAUCCUCUUCAUGAGAAUGACCGUUAAUAAUCACAUCGUCAUUGAUGAUGCUUGGGCGGGUACUGCUGCGACUUGGAUCUUUCAUGGUUGGUGCUCGUUGUCGUUUUUAACCCAGUGCACGCAACAGAGGAUUGAGCAUCA
# B18: chr2:187370222:187370223:+_ENSG00000065548_ENST00000337859|hu_hu|FALSE|FALSE (ssRNA)
# RNA: GGGAGUUCUACAGUCCGACGAUCUUUCCUUUUCUUCCAGGCAAGAAAAGAUUCUAGAGUGAUUUUGGUAACAUUUGGACCUAGGGCAGAACGCUCUCUCUCAAUUAGAUCUUCUAAUGAAAUUUCAUCUUCUUUCUCUUCUUUCAACAGAGGAUUGAGCAUCA
# B19: 31086903_31087023_3498_3pUTR_ENSG00000092140_ENST00000206595|human|control|control (ssRNA)
# RNA: GGGAGUUCUACAGUCCGACGAUCUGGGACUAUAUAUUUUCACAUUGUUAGCACUUUGUUAGUACAGUUACUUUUAGGUAUUGUCUUUUAGUAGCAUUAUUAAAGUUAAAAAAUAAAGGAAACAGAAGUAAAGAGUUUAUAGAACAACAGAGGAUUGAGCAUCA
# B20: chr7:135612270:135612271:-_ENSG00000105887_ENST00000393085|hu_mus|hu_hu_hu_mus_False|98_108 (ssRNA)
# RNA: GGGAGUUCUACAGUCCGACGAUCGUUUCUGAGAUGUUAAGUAUUACGUACUUCAGUGGAAAACAAAACUUAACCUUUUAUUAAUGCGUGUUGUACCAAAAGCAGACAUUUUAGCUUCAUUUAUUCAAAAAUAUUAACAUUAAGCAACAGAGGAUUGAGCAUCA
# B21: chr12:112777701:112777702:+_ENSMUSG00000021282_ENSMUST00000166123|mus_mus|motif|central (ssRNA)
# RNA: GGGAGUUCUACAGUCCGACGAUCCGGUCUCUGACAUGAAAAAAUUUUCGCCACUGAGGCUGUAAGCUUCUUGCUUGUAUGCGGUGUUUCCCCAAUACAGGUACCAAUGGCUGCGCAACAGCUCGUUUUCGUCAAAUAAAGACACAACAGAGGAUUGAGCAUCA
# B22: chr4:115894766:115894767:+_ENSMUSG00000028698_ENSMUST00000030464|mus_hu|mus_mus_mus_hu_True|8_98 (ssRNA)
# RNA: GGGAGUUCUACAGUCCGACGAUCUUCCACACGGAAAGUACUUGGGGGUUUUCCAACGGCCAGUACCAGUCCGGCCAAACUACCCGAACAGGGUCCUCCCCCUCUCUCCUACAGAACACAACAAAAUAACAAAAUACUUUCAAGCAACAGAGGAUUGAGCAUCA
# Target: T1, UNK ZnF1-3
# Test: nsRBNS (natural sequence RNA bind-n-seq); RBNS binding buffer (assumed for nsRBNS): 25 mM Tris pH 7.5, 150 mM KCl, 3 mM MgCl2, 0.01% Triton X-100, 500 ug/ml BSA, 20 U/ml SUPERase-In, 4 C; UNK is unkempt and MSI1 is Musashi-1; names of the RNAs are library labels; protein concentration not given here; high values mean tight binding
row,Binder,binding signal [enrichment R]
1,B1,0.502
2,B2,1
3,B3,1.44
4,B4,2.38
5,B5,0.794
6,B6,1.19
7,B7,0.564
8,B8,0.716
9,B9,0.833
10,B10,0.726
11,B11,0.809
12,B12,0.642
13,B13,0.638
14,B14,0.872
15,B15,0.823
16,B16,0.817
17,B17,0.55
18,B18,0.614
19,B19,2
20,B20,0.882
21,B21,1.17
22,B22,1.32
